Assay [1] has as its target β-arrestin-1 (1-418), full length, in pAS2-1 (rat) (UniProt P29066). The assay is described as follows: two-hybrid; co-transformation of pAS2-1 β-arrestin-1 constructs with pACT2 MYPT-1(643-943) into PJ69-4A; selected on Trp/Leu dropout plates, growth on Trp/Leu/Ade dropout plates.
Assay [2] concerns the target β-arrestin-1 (1-163) in pAS2-1 (rat) (UniProt P29066). Described as above.
Assay [3] has as its target β-arrestin-1 (1-253) in pAS2-1 (rat) (UniProt P29066). The assay is described as above.
Assay [4] addresses β-arrestin-1 (1-418), full length, in pAS2-1 (rat) (UniProt P29066). The assay can be described thus: two-hybrid; library screen: pAS2-1 β-arrestin-1 as bait, GAL4 activation domain fusion library in pACT2 (Matchmaker human heart cDNA library) as prey, yeast strain PJ69-4A; growth on Trp/Leu/His/Ade dropout plates.
The target of assay [5] is endogenous MYPT-1 (myosin light chain phosphatase Targeting Subunit) (human (endogenous in HEK-293)) (UniProt O14974). The assay can be described thus: co-IP; AT1aR-293 cells expressing β-arrestin-1-FLAG or β-arrestin-2-FLAG, stimulated with Ang II 1 nM for the indicated time; immunoprecipitation of endogenous MYPT-1 from whole-cell lysate (0.5% Nonidet P-40, 250 mM NaCl, pH 7.5, 4 °C), immunoblot of the FLAG tag. In general terms: Immunoblotting shows a protein as a band on a membrane.

Sequences of proteins named here, by UniProt entry; tags and fusion partners are left off. A change or cut given only in a name is not applied to a line headed by its entry. Residues count along the entry.
UniProt P29066: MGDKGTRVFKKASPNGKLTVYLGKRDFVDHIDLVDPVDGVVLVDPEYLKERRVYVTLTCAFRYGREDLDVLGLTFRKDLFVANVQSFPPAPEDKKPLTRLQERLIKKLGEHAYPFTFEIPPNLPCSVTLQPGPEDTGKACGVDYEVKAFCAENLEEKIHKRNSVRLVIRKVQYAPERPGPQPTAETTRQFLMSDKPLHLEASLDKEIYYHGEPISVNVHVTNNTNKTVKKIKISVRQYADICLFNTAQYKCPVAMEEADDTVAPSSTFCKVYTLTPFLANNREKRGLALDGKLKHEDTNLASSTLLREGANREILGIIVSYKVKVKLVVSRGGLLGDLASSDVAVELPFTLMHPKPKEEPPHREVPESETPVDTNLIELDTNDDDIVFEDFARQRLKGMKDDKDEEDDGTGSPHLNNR
β-arrestin-1 (1-253) in pAS2-1: residues 1-253 of P29066
β-arrestin-1 (1-163) in pAS2-1: residues 1-163 of P29066
UniProt O14974: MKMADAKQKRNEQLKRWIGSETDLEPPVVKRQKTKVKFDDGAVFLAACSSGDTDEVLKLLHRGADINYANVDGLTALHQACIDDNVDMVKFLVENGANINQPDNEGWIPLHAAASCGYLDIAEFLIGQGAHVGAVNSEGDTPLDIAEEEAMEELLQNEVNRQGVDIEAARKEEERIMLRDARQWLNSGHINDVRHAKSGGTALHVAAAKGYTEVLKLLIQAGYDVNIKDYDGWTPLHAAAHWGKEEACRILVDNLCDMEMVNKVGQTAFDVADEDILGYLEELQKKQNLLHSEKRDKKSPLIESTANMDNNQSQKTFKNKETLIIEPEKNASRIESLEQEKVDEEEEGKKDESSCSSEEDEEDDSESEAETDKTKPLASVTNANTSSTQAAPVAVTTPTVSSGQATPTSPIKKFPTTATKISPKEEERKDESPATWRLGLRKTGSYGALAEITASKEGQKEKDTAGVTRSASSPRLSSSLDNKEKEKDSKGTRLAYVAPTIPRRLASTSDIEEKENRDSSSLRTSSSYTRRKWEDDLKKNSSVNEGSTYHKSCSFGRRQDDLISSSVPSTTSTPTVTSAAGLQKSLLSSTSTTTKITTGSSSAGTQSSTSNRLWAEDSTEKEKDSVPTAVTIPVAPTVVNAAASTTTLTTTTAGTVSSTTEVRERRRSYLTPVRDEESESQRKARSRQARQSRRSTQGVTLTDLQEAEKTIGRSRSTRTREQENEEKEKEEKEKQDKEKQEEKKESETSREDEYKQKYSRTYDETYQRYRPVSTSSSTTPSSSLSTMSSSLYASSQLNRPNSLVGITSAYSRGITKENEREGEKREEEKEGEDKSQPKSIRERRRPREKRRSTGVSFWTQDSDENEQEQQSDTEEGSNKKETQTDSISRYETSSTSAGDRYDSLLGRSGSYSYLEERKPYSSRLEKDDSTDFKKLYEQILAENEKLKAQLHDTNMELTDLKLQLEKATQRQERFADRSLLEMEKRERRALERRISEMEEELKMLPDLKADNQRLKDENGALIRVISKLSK
MYPT-1(643-943) in pACT2: residues 730-1030 of O14974
UniProt P29067: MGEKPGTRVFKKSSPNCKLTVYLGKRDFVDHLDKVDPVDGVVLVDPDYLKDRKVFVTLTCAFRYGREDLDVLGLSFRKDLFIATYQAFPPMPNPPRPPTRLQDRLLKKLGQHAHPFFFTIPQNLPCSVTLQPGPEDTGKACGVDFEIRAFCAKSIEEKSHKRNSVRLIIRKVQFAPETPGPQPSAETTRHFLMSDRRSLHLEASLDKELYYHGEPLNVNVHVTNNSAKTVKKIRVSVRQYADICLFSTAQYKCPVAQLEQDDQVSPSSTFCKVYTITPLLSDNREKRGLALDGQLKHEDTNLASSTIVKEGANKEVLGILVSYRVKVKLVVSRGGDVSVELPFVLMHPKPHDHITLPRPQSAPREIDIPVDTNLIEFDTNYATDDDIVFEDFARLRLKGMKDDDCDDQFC

No constants are given. Whether binding was seen depends on the method and setting. For part of these data: In cells and extracts the contact can be indirect. Some results given as binding are weak or reduced against the parent protein; the word gives no strength.

Consider “MYPT-1(643-943) in pACT2 (from UniProt O14974-5 643-943) (domain or fragment)”, for which the binding entry was “binds” in assay [1], “no binding” in assay [2], “binds” in assay [3] and “binds” in assay [4].
Regarding “β-arrestin-2-FLAG (from UniProt P29067 1-410)”, the binding result in assay [5] is recorded as “binds”.
“β-arrestin-1-FLAG (from UniProt P29066 1-418)”: the binding result in assay [5] is recorded as “binds”.

(Values after publication PMC3821855.)
